Measured values taken from paper PMC12820563, “FoxP3 forms a head-to-head dimer in vivo and stabilizes its multimerization on adjacent microsatellites”.
The other results are listed elsewhere or left out.

Biological target: T1, MBP-FoxP1dN (Mus musculus, UniProt P58462 326-579)
T1 sequence: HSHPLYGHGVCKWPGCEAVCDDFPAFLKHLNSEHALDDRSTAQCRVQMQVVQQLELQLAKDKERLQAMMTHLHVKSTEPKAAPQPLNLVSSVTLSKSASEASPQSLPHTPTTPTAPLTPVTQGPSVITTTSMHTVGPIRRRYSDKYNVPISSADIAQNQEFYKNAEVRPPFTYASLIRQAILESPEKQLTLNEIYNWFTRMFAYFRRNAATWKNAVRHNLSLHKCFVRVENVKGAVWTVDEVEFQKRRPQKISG
Experiment: PD-seq (MBP pull-down with sequencing); 20 mM Tris-HCl pH 7.5, 100 mM NaCl, 1.5 mM MgCl2, 0.4 uM protein, 0.1 uM dsDNA library, 30 min, room temperature, amylose pull-down; high values mean tight binding
Settings: protein: recombinant; tags: His6-MBP; chain copies: 2; dsDNA, one strand shown
Method in brief: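 Amylose resin was used to capture complexes formed during 30 min at room temperature in Tris pH 7.5 buffer with NaCl and MgCl2 between 0.4 µM His6-MBP-tagged mouse FoxP3 or FoxP1 fragment lacking the N-terminus, expressed in E. coli, and 0.1 µM Klenow-filled double-stranded degenerate DNA library. After three washes, the DNA was released with proteinase K, barcoded by PCR and sequenced on Illumina. Binding is pooled-replicate reads-per-million enrichment, pull-down over input.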

Sequence | binding signal
GATGATTGTTCTCCCAGCTGATGAATTCCTAATTTCGAGTAAACAAATTTTCCTAATCTTTCTGTTCAAGCGCCATCTAC | 0.96 RPM ratio (pull-down/input)
GATGATTGTTCTCCCAGCTGATGAATTCAATGATTCGAGTAAACAAATTTTCCTAATCTTTCTGTTCAAGCGCCATCTAC | 0.982 RPM ratio (pull-down/input)
GATGATTGTTCTCCCAGCTGATGAATTTCAATGGTCGAGTAAACAAATTTTCCTAATCTTTCTGTTCAAGCGCCATCTAC | 0.924 RPM ratio (pull-down/input)
GATGATTGTTCTCCCAGCTGATGAATTACCACAATCGAGTAAACAAATTTTCCTAATCTTTCTGTTCAAGCGCCATCTAC | 1.47 RPM ratio (pull-down/input)
GATGATTGTTCTCCCAGCTGATGAATTCGCTAGCTCGAGTAAACAAATTTTCCTAATCTTTCTGTTCAAGCGCCATCTAC | 0.798 RPM ratio (pull-down/input)
GATGATTGTTCTCCCAGCTGATGAATTGAATCAGTCGAGTAAACAAATTTTCCTAATCTTTCTGTTCAAGCGCCATCTAC | 0.887 RPM ratio (pull-down/input)
GATGATTGTTCTCCCAGCTGATGAATTAACCGTGTCGAGTAAACAAATTTTCCTAATCTTTCTGTTCAAGCGCCATCTAC | 0.912 RPM ratio (pull-down/input)
GATGATTGTTCTCCCAGCTGATGAATTGCATCCCTCGAGTAAACAAATTTTCCTAATCTTTCTGTTCAAGCGCCATCTAC | 1.46 RPM ratio (pull-down/input)
GATGATTGTTCTCCCAGCTGATGAATTCTAATATTCGAGTAAACAAATTTTCCTAATCTTTCTGTTCAAGCGCCATCTAC | 0.982 RPM ratio (pull-down/input)
GATGATTGTTCTCCCAGCTGATGAATTGAGGCTATCGAGTAAACAAATTTTCCTAATCTTTCTGTTCAAGCGCCATCTAC | 1.01 RPM ratio (pull-down/input)
GATGATTGTTCTCCCAGCTGATGAATTTAGTCCATCGAGTAAACAAATTTTCCTAATCTTTCTGTTCAAGCGCCATCTAC | 1.01 RPM ratio (pull-down/input)
GATGATTGTTCTCCCAGCTGATGAATTTACGTCCTCGAGTAAACAAATTTTCCTAATCTTTCTGTTCAAGCGCCATCTAC | 1.22 RPM ratio (pull-down/input)
GATGATTGTTCTCCCAGCTGATGAATTACTGAATTCGAGTAAACAAATTTTCCTAATCTTTCTGTTCAAGCGCCATCTAC | 1.11 RPM ratio (pull-down/input)
GATGATTGTTCTCCCAGCTGATGAATTGCGCGGGTCGAGTAAACAAATTTTCCTAATCTTTCTGTTCAAGCGCCATCTAC | 0.959 RPM ratio (pull-down/input)
GATGATTGTTCTCCCAGCTGATGAATTTCACCCATCGAGTAAACAAATTTTCCTAATCTTTCTGTTCAAGCGCCATCTAC | 0.921 RPM ratio (pull-down/input)
GATGATTGTTCTCCCAGCTGATGAATTGCGAAACTCGAGTAAACAAATTTTCCTAATCTTTCTGTTCAAGCGCCATCTAC | 1.03 RPM ratio (pull-down/input)

Sequence | binding signal
GATGATTGTTCTCCCAGCTGATGAATTACACTATTCGAGTAAACAAATTTTCCTAATCTTTCTGTTCAAGCGCCATCTAC | 1.26 RPM ratio (pull-down/input)
GATGATTGTTCTCCCAGCTGATGAATTACAAGCATCGAGTAAACAAATTTTCCTAATCTTTCTGTTCAAGCGCCATCTAC | 1.46 RPM ratio (pull-down/input)
GATGATTGTTCTCCCAGCTGATGAATTGTAAAGGTCGAGTAAACAAATTTTCCTAATCTTTCTGTTCAAGCGCCATCTAC | 0.894 RPM ratio (pull-down/input)
GATGATTGTTCTCCCAGCTGATGAATTTCTAGGTTCGAGTAAACAAATTTTCCTAATCTTTCTGTTCAAGCGCCATCTAC | 0.953 RPM ratio (pull-down/input)
GATGATTGTTCTCCCAGCTGATGAATTTCCATTATCGAGTAAACAAATTTTCCTAATCTTTCTGTTCAAGCGCCATCTAC | 0.999 RPM ratio (pull-down/input)
GATGATTGTTCTCCCAGCTGATGAATTATAGCCCTCGAGTAAACAAATTTTCCTAATCTTTCTGTTCAAGCGCCATCTAC | 0.904 RPM ratio (pull-down/input)
GATGATTGTTCTCCCAGCTGATGAATTGGTAATCTCGAGTAAACAAATTTTCCTAATCTTTCTGTTCAAGCGCCATCTAC | 1.03 RPM ratio (pull-down/input)
GATGATTGTTCTCCCAGCTGATGAATTACGTAACTCGAGTAAACAAATTTTCCTAATCTTTCTGTTCAAGCGCCATCTAC | 1.08 RPM ratio (pull-down/input)
GATGATTGTTCTCCCAGCTGATGAATTGCATCCTTCGAGTAAACAAATTTTCCTAATCTTTCTGTTCAAGCGCCATCTAC | 1.67 RPM ratio (pull-down/input)
GATGATTGTTCTCCCAGCTGATGAATTTTGGCAATCGAGTAAACAAATTTTCCTAATCTTTCTGTTCAAGCGCCATCTAC | 1.14 RPM ratio (pull-down/input)
GATGATTGTTCTCCCAGCTGATGAATTCTACGGATCGAGTAAACAAATTTTCCTAATCTTTCTGTTCAAGCGCCATCTAC | 0.818 RPM ratio (pull-down/input)
GATGATTGTTCTCCCAGCTGATGAATTCAACCTTTCGAGTAAACAAATTTTCCTAATCTTTCTGTTCAAGCGCCATCTAC | 0.896 RPM ratio (pull-down/input)
GATGATTGTTCTCCCAGCTGATGAATTATTGACTTCGAGTAAACAAATTTTCCTAATCTTTCTGTTCAAGCGCCATCTAC | 1.55 RPM ratio (pull-down/input)
GATGATTGTTCTCCCAGCTGATGAATTCGCTTGCTCGAGTAAACAAATTTTCCTAATCTTTCTGTTCAAGCGCCATCTAC | 0.817 RPM ratio (pull-down/input)
GATGATTGTTCTCCCAGCTGATGAATTACGAGTATCGAGTAAACAAATTTTCCTAATCTTTCTGTTCAAGCGCCATCTAC | 1.15 RPM ratio (pull-down/input)
GATGATTGTTCTCCCAGCTGATGAATTGAGCTCGTCGAGTAAACAAATTTTCCTAATCTTTCTGTTCAAGCGCCATCTAC | 0.799 RPM ratio (pull-down/input)
